The values that follow come from publication PMC3052287 (Psychopharmacology, 2010).

Assay [1] concerns the target T1, h5-HT7 receptor (Homo sapiens, UniProt P34969). The conditions noted are these: cited from earlier work.
Assay [2] addresses T1, h5-HT7 receptor.
Assay [3] deals with T1, h5-HT7 receptor. The assay is described as follows: Homogenate radioligand binding.

SMILES strings stand for the structures. Where two headings read alike, the source gives them in different places.

As a reminder, the Ki is the dissociation constant of the complex between target and ligand, obtained from inhibition or displacement.

T1 sequence (P34969 whole entry): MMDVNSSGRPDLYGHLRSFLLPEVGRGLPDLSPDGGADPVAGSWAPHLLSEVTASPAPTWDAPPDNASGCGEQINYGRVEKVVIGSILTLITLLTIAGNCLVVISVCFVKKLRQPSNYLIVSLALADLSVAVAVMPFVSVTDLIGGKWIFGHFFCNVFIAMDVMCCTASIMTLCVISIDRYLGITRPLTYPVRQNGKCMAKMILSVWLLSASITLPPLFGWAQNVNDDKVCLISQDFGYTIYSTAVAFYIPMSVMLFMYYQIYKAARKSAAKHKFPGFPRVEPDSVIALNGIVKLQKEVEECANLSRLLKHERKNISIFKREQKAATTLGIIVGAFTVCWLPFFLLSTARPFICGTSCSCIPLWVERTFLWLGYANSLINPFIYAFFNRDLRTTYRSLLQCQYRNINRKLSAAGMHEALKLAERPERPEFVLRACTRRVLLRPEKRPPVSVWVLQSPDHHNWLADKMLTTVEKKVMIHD

In the case of `CC(C)C[C@H]1C(=O)N2CCC[C@H]2[C@]2(O)O[C@](NC(=O)[C@@H]3C=C4c5cccc6[nH]c(Br)c(c56)C[C@H]4N(C)C3)(C(C)C)C(=O)N12` [bromocriptine], the “share of h5-HT7 binding sites bound in a wash-resistant manner” value on h5-HT7 receptor [1] is reported as “all the h5-HT7 receptors”.
`CN1C[C@@H](NS(=O)(=O)N(C)C)C[C@@H]2c3cccc4c3c(cn4C)C[C@H]21` [mesulergine]: the “effect on wash-resistant [3H]risperidone binding” value on h5-HT7 receptor [2] (1 μM drug added to intact cells) is “dissociation of [^3H]risperidone from the receptor”. This molecule also had an inhibition constant (Ki) at h5-HT7 receptor [3] of 0.0028 µM. The “rightward shift of competition curve” value at h5-HT7 receptor [3] ([3H]5-HT raised from 1 to 10 nM, membrane homogenates) was “fourfold”.
Turning to `CN1C[C@@H](NS(=O)(=O)N(C)C)C[C@@H]2c3cccc4c3c(cn4C)C[C@H]21` [[^3H]mesulergine], the “absolute level of binding” value on h5-HT7 receptor [2] (intact cells, 1 nM radioligand) stood at 120 fmol/mg.
Take `CN(C)CCSc1nc2ccccc2cc1-c1ccccc1` [ICI169369]: the inhibition constant (Ki) at h5-HT7 receptor [3] (read-out: Membrane homogenate Ki, Fig. 5 legend, membrane homogenates) worked out at 0.393 ± 0.054 µM.
